Assay results as given in the supplement of paper PMC4466236.
The full ranking holds about 33,000 sequences; the median of “E-score (dimensionless, -0.5 to 0.5)” is about -0.058, and the highest 2% start at about 0.35. Some of the results follow.

system: MvaT; experiment: PBM 8-mer E-score (mean of HK and ME arrays) (E-score (dimensionless, -0.5 to 0.5)); higher = stronger relative binding preference; most listed sequences are background and not binding sites
How it was run: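 Full-length P. aeruginosa MvaT, with glutathione S-transferase fused to its N-terminus (cloned into pTH6838 by isothermal assembly), was tested by protein binding microarray using a previously described protocol. Two universal double-stranded 60-mer arrays (ME and HK) were used, each with a constant 25-mer primer region and a variable 35-mer region covering all 8-mers. The rank-based 8-mer E-score (-0.5 to 0.5) is the mean of the two arrays, parsed with a custom Python script.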

Row | Sequence | PBM 8-mer E-score
1 | CCGCGTAC | -0.0945
2 | ACCGACGC | -0.13
3 | CCAAGGGA | -0.26
4 | CCCACACC | 0.0355
5 | ACTACTCC | 0.0169
6 | GATGTATA | 0.289
7 | TCCTGGAA | -0.0682
8 | AGCAGCAT | 0.0492
9 | CGAGCTGA | -0.193
10 | AGGTGACC | -0.205
11 | GGTGTTCA | -0.119
12 | GCATAACC | 0.0428
13 | ATACCCGG | -0.0701
14 | ATGGAAAC | 0.0811
15 | CACTGGGG | -0.22
16 | CAGACAAA | 0.0494
17 | GTTTGTAA | 0.261
18 | CCCAGATC | -0.287
19 | ACATTCTG | 0.0683
20 | CAAGAGTC | -0.0464
21 | AACCGCCC | -0.224
22 | CACAATGC | -0.0696
23 | GCGTCGTA | -0.0541
24 | CCTGCAGA | -0.14

Row | Sequence | PBM 8-mer E-score
25 | GCAGTGGA | -0.107
26 | ACACTTAG | 0.149
27 | AGCGGGAC | -0.179
28 | GATTACGA | 0.0299
29 | GAAAGCAC | -0.183
30 | ATGAATCG | 0.0269
31 | AAGGCTAA | 0.00985
32 | GACTGCCC | -0.198
33 | GATGGAGC | -0.184
34 | GACAGGGA | -0.215
35 | CGAGTTAG | -0.0256
36 | CCCGTAGG | -0.317
37 | AAAGCGTT | 0.0685
38 | ATAGCCGG | -0.189
39 | CCTCCATA | -0.0947
40 | CTACACAA | 0.0154
41 | GGCACCCA | -0.148
42 | CGCTCCCA | -0.205
43 | CCTAACTA | 0.0781
44 | ACTGGGAG | -0.198
45 | CGGCGAGC | -0.26
46 | GCGATAAA | 0.203
47 | AACGCGCT | 0.0074
48 | CCACTGGC | -0.179

Row | Sequence | PBM 8-mer E-score
49 | GCAAATTA | 0.199
50 | CGAAGACA | -0.0154
51 | AGGCACTG | -0.124
52 | CCTGCAAG | -0.189
53 | TGACGGAA | 0.141
54 | AGAGCCCT | -0.307
55 | TACTCTAA | 0.136
56 | CATTCGTA | -0.0444
57 | AGGGGTCA | -0.239
58 | ACATCATG | -0.0644
59 | GCTGACAC | -0.102
60 | AAGTTGCC | 0.22
61 | ATGGCCCG | -0.241
62 | AAGGCTCA | -0.247
63 | AATAGTAA | 0.338
64 | AGCGGGGG | -0.216
65 | CAGGCGAA | -0.184
66 | ACTACACG | 0.0312
67 | ATCTTTTG | -0.00788
68 | AGTTCTTC | -0.0102
69 | CGCTTCAA | 0.0896
70 | CCTTTCGA | -0.222
71 | GCGCTTTA | -0.00157
72 | CTATGACC | -0.0108

Row | Sequence | PBM 8-mer E-score
73 | TCGGACCA | -0.0698
74 | AACTATCG | 0.0977
75 | GCGAGATA | 0.0541
76 | ACGAGAGC | -0.0464
77 | ACTAGCTA | 0.0346
78 | AGGGCTAA | -0.142
79 | CACGGCTA | -0.21
80 | CTGGCCTA | -0.287
81 | GAGCAACA | -0.0635
82 | AGTTACTA | 0.3
83 | CGATCAAG | -0.0412
84 | GACTAGGA | -0.0815
85 | ATGGTTTG | 0.101
86 | GATTCCCC | -0.148
87 | AACTGTTG | 0.123
88 | GAAGTCGA | -0.0693
89 | AGCCAAGC | -0.216
90 | GCTCTCAA | -0.196
91 | ATAGCAGA | -0.0387
92 | AAGCCGCA | -0.0885
93 | CAAAACAG | 0.131
94 | GAAAGGCC | -0.217
